In the supplement of paper PMC4967469:
A lower IC50 marks a more sensitive line; where the fit passes the top or lowest dose, that dose stands as a limit. For AUC the same curve is integrated over the 256-fold range of doses and scaled to a fraction; it is 1 without any effect and falls as sensitivity rises. For some assays here: Where the top dose is marked as inferred, it was derived from the fitted curves, not read from the paper. For some assays here: Drugs with an entry number were screened twice under separate entries, and the two screens often disagree.

Key:
Assay in all cases: Viability of human cancer cell lines after 72 h of drug (GDSC screen)
LFM-A13 = compound: C/C(O)=C(\C#N)C(=O)Nc1cc(Br)ccc1Br [LFM-A13]; details: top dose 16 µM; top dose inferred
Procedure: (§1)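 Human cancer cell lines in 384-well plates, medium with 10% serum, drug for 72 h over a 256-fold dose range (nine 2-fold or five 4-fold steps up to the top dose). Adherent lines were fixed and stained with the nucleic acid dye Syto60, suspension lines read with resazurin; signal relative to control wells, capped at 0 and 100%. One two-parameter sigmoid per drug and line, fitted in a mixed model over all curves with the slope shared within a line.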

TW-37 = compound: CC(C)c1ccccc1Cc1cc(C(=O)Nc2ccc(S(=O)(=O)c3ccccc3C(C)(C)C)cc2)c(O)c(O)c1O [TW-37]; details: top dose 5 µM
Procedure: as §1

Bicalutamide = compound: CC(O)(CS(=O)(=O)c1ccc(F)cc1)C(=O)Nc1ccc(C#N)c(C(F)(F)F)c1 [Bicalutamide]; details: top dose inferred
Procedure: as §1

AUY922 = compound: CCNC(=O)c1noc(-c2cc(C(C)C)c(O)cc2O)c1-c1ccc(CN2CCOCC2)cc1 [AUY922]; details: top dose 0.256 µM; top dose inferred
Procedure: as §1

KIN001-270 = compound: Cc1ccc(Nc2cc(-c3cccc(N4C(=O)c5ccccc5C4=O)c3)ncn2)cc1NS(C)(=O)=O [KIN001-270]; details: top dose 20 µM; top dose inferred
Procedure: as §1

Nilotinib = compound: Cc1cn(-c2cc(NC(=O)c3ccc(C)c(Nc4nccc(-c5cccnc5)n4)c3)cc(C(F)(F)F)c2)cn1 [Nilotinib]; details: top dose 2 µM
Procedure: as §1

Gemcitabine = compound: Nc1ccn([C@@H]2O[C@H](CO)[C@@H](O)C2(F)F)c(=O)n1 [Gemcitabine]; details: top dose 1.024 µM
Procedure: as §1

T0901317 = compound: O=S(=O)(c1ccccc1)N(CC(F)(F)F)c1ccc(C(O)(C(F)(F)F)C(F)(F)F)cc1 [T0901317]; details: top dose 10.24 µM; top dose inferred
Procedure: as §1

MP470 = compound: S=C(NCc1ccc2c(c1)OCO2)N1CCN(c2ncnc3c2oc2ccccc23)CC1 [MP470]; details: top dose 20 µM; top dose inferred
Procedure: as §1

[1] = top dose 1.024 µM, screen: GDSC drug entry 150
[2] = top dose 10 µM, screen: GDSC drug entry 1502

Row | Cell Line | AUC (LFM-A13) | IC50 (LFM-A13) [nM] | AUC (TW-37) | IC50 (TW-37) [nM] | AUC (Bicalutamide; [1]) | IC50 (Bicalutamide; [1]) [nM] | AUC (Bicalutamide; [2]) | IC50 (Bicalutamide; [2]) [nM] | AUC (AUY922) | IC50 (AUY922) [nM] | AUC (KIN001-270) | IC50 (KIN001-270) [nM] | AUC (Nilotinib) | IC50 (Nilotinib) [nM] | AUC (Gemcitabine) | IC50 (Gemcitabine) [nM] | AUC (T0901317) | IC50 (T0901317) [nM] | AUC (MP470) | IC50 (MP470) [nM]
1 | HGC-27 (stomach, adherent) | 0.986 | > 16000 | 0.416 | 191 | 0.99 | > 1020 | 0.983 | > 10000 | 0.431 | 10.7 | 0.94 | > 20000 | 0.973 | > 2000 | 0.115 | 4.96 | 0.919 | > 10200 | 0.853 | 12100
2 | TK (B-cell lymphoma, suspension) | 0.977 | > 16000 | 0.603 | 583 | 0.985 | > 1020 | 0.986 | > 10000 | 0.731 | 67.5 | 0.974 | > 20000 | 0.983 | > 2000 | 0.246 | 12.9 | 0.987 | > 10200 | 0.978 | > 20000
3 | CAL-29 (bladder, adherent) | 0.955 | > 16000 | 0.488 | 289 | 0.984 | > 1020 | 0.979 | > 10000 | 0.98 | > 256 | 0.981 | > 20000 | 0.983 | > 2000 | 0.3 | 16.7 | 0.983 | > 10200 | 0.975 | > 20000
4 | HCC2998 (large intestine, adherent) | 0.881 | > 16000 | 0.884 | > 5000 | 0.988 | > 1020 |  |  | 0.559 | 23 | 0.987 | > 20000 | 0.987 | > 2000 | 0.163 | 6.21 | 0.988 | > 10200 | 0.972 | > 20000
5 | IPC-298 (melanoma, adherent) | 0.986 | > 16000 | 0.457 | 238 | 0.987 | > 1020 | 0.986 | > 10000 | 0.718 | 65.4 | 0.987 | > 20000 | 0.988 | > 2000 | 0.589 | 112 | 0.973 | > 10200 | 0.944 | > 20000
6 | HuP-T3 (pancreas, adherent) | 0.952 | > 16000 | 0.685 | 1160 | 0.977 | > 1020 |  |  | 0.474 | 13.3 | 0.972 | > 20000 | 0.982 | > 2000 | 0.564 | 99.5 | 0.982 | > 10200 | 0.927 | > 20000
7 | HT-1197 (bladder, adherent) | 0.922 | > 16000 | 0.8 | 2950 | 0.983 | > 1020 | 0.938 | > 10000 | 0.515 | 17.7 | 0.984 | > 20000 | 0.985 | > 2000 | 0.812 | 676 | 0.984 | > 10200 | 0.98 | > 20000
8 | NY (osteosarcoma, adherent) | 0.971 | > 16000 | 0.436 | 210 | 0.989 | > 1020 | 0.97 | > 10000 | 0.556 | 22.7 | 0.987 | > 20000 | 0.985 | > 2000 | 0.414 | 37.4 | 0.989 | > 10200 | 0.985 | > 20000
9 | RT4 (bladder, adherent) | 0.977 | > 16000 | 0.91 | > 5000 | 0.987 | > 1020 | 0.986 | > 10000 | 0.987 | > 256 | 0.964 | > 20000 | 0.98 | > 2000 | 0.969 | > 1020 | 0.987 | > 10200 | 0.909 | > 20000
10 | VMRC-RCZ (kidney, adherent) | 0.922 | > 16000 | 0.872 | > 5000 | 0.983 | > 1020 | 0.976 | > 10000 | 0.489 | 14.9 | 0.977 | > 20000 | 0.982 | > 2000 | 0.111 | < 4 | 0.954 | > 10200 | 0.925 | > 20000
11 | CAKI-1 (kidney, adherent) | 0.816 | 15300 | 0.449 | 212 | 0.969 | > 1020 | 0.952 | > 10000 | 0.808 | 224 | 0.959 | > 20000 | 0.972 | > 2000 | 0.938 | > 1020 | 0.974 | > 10200 | 0.428 | 720
12 | HDQ-P1 (breast, adherent) | 0.985 | > 16000 | 0.546 | 429 | 0.984 | > 1020 | 0.97 | > 10000 | 0.625 | 38 | 0.976 | > 20000 | 0.984 | > 2000 | 0.85 | 1020 | 0.983 | > 10200 | 0.974 | > 20000
